Test results: PubChem BioAssay AID1745853 (National Center for Advancing Translational Sciences (NCATS), 2022)
This is one part of the list. These are further read-outs of the screen, such as a control signal, another cell line or another target. No call is given for them.

Assays:
Assay in all cases: Primary Screen for Target Class Profiling of Small Molecule Inhibitors of Methyltransferases
[1] = target: Glycine N-methyltransferase (Homo sapiens) (UniProt Q14749); details: purified enzyme, MTase-Glo SAH luminescence; measured here: GNMT inhibition; at 40 µM; stronger effect = lower value
Outline: (§1)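 Each enzyme was reacted with SAM and its substrate, with compounds tested once at 40 uM; SAH formed was read by MTase-Glo luminescence.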

[2] = target: Guanidinoacetate N-methyltransferase (Homo sapiens) (UniProt Q14353); details: purified enzyme, MTase-Glo SAH luminescence; measured here: GAMT inhibition; at 40 µM; stronger effect = lower value
Outline: as §1

[3] = target: Histamine N-methyltransferase (Homo sapiens) (UniProt P50135); details: purified enzyme, MTase-Glo SAH luminescence; measured here: HNMT inhibition; at 40 µM; stronger effect = lower value
Outline: as §1

[4] = target: Nicotinamide N-methyltransferase (Homo sapiens) (UniProt P40261); details: purified enzyme, MTase-Glo SAH luminescence; measured here: NNMT inhibition; at 40 µM; stronger effect = lower value
Outline: as §1

[5] = target: Phenylethanolamine N-methyltransferase (Homo sapiens) (UniProt P11086); details: purified enzyme, MTase-Glo SAH luminescence; measured here: PNMT inhibition; at 40 µM; stronger effect = lower value
Outline: as §1
% is scaled to controls: 0 for no effect and ±100 for the full control effect.

SMILES	activity change, negative = inhibition [1] [%]	activity change, negative = inhibition [2] [%]	activity change, negative = inhibition [3] [%]	activity change, negative = inhibition [4] [%]	activity change, negative = inhibition [5] [%]
CCN(CC)CCOCCOC(=O)C1(c2ccccc2)CCCC1	-8.31	0.731	-1.1	-9.63	2.82
COc1ccc2cc3n(c2c1)CC(C)(C(=O)NC1CCCCC1)N(Cc1ccccc1F)C3=O (stereo not given)	2.71	0.498	7.32	1.06	0.855
O=C(NCCN1CCCCC1)C1CN(S(=O)(=O)c2cccnc2)CC12CCCCC2 (stereo not given)	-0.47	-1.6	-26.4	-18.9	-2.97
CCCSCCCN1C(=O)c2nc3ccccc3n2CC1(C)C(=O)NC1CCCCCC1 (stereo not given)	2.27	2.25	5.75	6.19	0.181
CC(=O)O[C@@H]1[C@@H](O)[C@H](O[C@@H]2[C@@H](O)[C@@H](O)[C@H](O[C@H]3[C@H](O[C@H]4[C@H](O[C@H]5CC[C@@]6(C)C(CC[C@]7(C)C6CC=C6[C@@H]8CC(C)(C)CC[C@]8(C(=O)O)CC[C@]67C)[C@]5(C)CO)O[C@H](CO)[C@@H](O)[C@@H]4O)OC[C@@H](O)[C@@H]3O)O[C@H]2C)OC[C@H]1O (stereo not given in full)	2.98	-3.04	11	-17.3	-5.74
C=CCNC(=O)C[C@@H]1CCN(C(=O)c2cccnc2)C[C@@H]1CC	-5.62	-6.34	-10.9	-6.22	0.111
CN1CCCCC(CC(=O)NCc2cc(F)ccc2F)C1=O (stereo not given)	-3.61	-8.33	-5.13	-9.74	-8.96
Cc1cc(C(C)(C)C)cc(C)c1CC1=NCCN1	-5.87	0.645	-7.2	-7.7	4.2
CCc1nnc(CN2CCC(C(=O)Nc3cccc(-c4ccco4)c3)CC2)o1	-9.81	-9.61	-4.03	-8.21	-8.23
Cc1ccc(S(=O)(=O)Nc2nc3ccc(C)cc3nc2Nc2ccc3c(c2)n(C)c(=O)n3C)cc1	15.2	0.481	1.88	3.48	-6.14
Cc1ccsc1C(=O)N1CCc2nnc([C@@H]3C[C@@H](O)CN3C(C)C)n2CC1	-5.99	-7.23	-4.3	-12.3	-7.6
CC1(C)CC(NC(=O)C(=O)Nc2ccc(Cl)cc2)CC(C)(C)N1	-0.994	1.12	7.82	-11.8	1.88
COc1cc(NC(=O)c2ccccn2)ccc1Cl	-1.54	3.9	8.88	-14.6	0.111
O=C(Nc1cnc(Cl)nc1)c1ccc(F)c(F)c1	-8.12	-11.1	5.55	-19.9	-3.24
COc1ccc(N2C(=O)c3cc4ccccc4n3CC2(C)C(=O)NC2CCCC2)c(OC)c1 (stereo not given)	-1.32	0	6.27	-6.82	0.007
O=c1[nH]ccc2c(O)cccc12	4.41	9.3	10.3	-6.37	2.74
CCc1cccc(NC(=O)Cn2nc3n(C4CC4)c(=O)c4ccc(C(=O)NC(C)C)cc4n3c2=O)c1	1.04	1.38	2.39	-9.33	-1.39
O=C(C(=O)N1CCc2[nH]nc(-c3ccccc3F)c2C1)c1ccco1	-6.46	-0.91	0.994	-10.9	-2.78
CC(C)c1noc([C@H]2C[C@@H]3C(=O)NCCCCCCN(C(=O)Cc4ccccc4)[C@@H]3C2)n1	-2.4	-10.4	-5.55	-12.1	-11.8

SMILES	activity change, negative = inhibition [1] [%]	activity change, negative = inhibition [2] [%]	activity change, negative = inhibition [3] [%]	activity change, negative = inhibition [4] [%]	activity change, negative = inhibition [5] [%]
COc1ccc(CNC(=O)C(C)n2ccc3cc(S(=O)(=O)N4CCCC4)ccc32)c(OC)c1 (stereo not given)	-1.58	-2.22	-1.61	-22.7	-5.19
CC1=CC2/C=C(\C)CCC3OC(C)(C)OC3CCC(=O)C23C(=O)NC(CC(C)C)C3C1C (stereo not given)	0	1.91	-2.53	-13.8	-0.303
C/C=C1\[C@H](OC2OC(COC3OC(CO)C(O)C(O)C3O)C(O)C(O)C2O)OC=C(C(=O)OC)[C@H]1CC(=O)OCCc1ccc(O)cc1 (stereo not given in full)	-2.29	-3.03	5.31	-11.5	-3.54
CC(C)CCn1c(=O)c2ccc(C(=O)NC(C)C)cc2n2c(=O)n(Cc3ccc(F)cc3)nc12	-1.19	-9.73	8.04	-16.8	-5.81
C=C1C(=O)O[C@@H]2C=C(COC(C)=O)CC/C=C(\CO)CC[C@@H]12	0	3.16	3.56	-7.03	5.81
CCCCCNc1nc2c(-c3ccccc3)nnn2c2ccccc12	-6.3	3.58	-5.05	-8.47	-9.41
Cn1nc(-c2nc(C3CCOC3)no2)cc1-c1ccccc1 (stereo not given)	-0.721	2.24	2.69	-4.11	-15.5
O=C(c1cc(O)c(O)c([N+](=O)[O-])c1)c1ccccc1F	-70.2	6.39	8.26	-8.6	-15.9
Cc1cc(C)c(NC(=O)Cn2c(=O)c3ccc(Cl)cc3n3nncc23)c(C)c1	-8.1	2.34	-6.53	-9.34	-10.6
Cc1ccc(N2C(=O)c3cc4occc4n3CC2(C)C(=O)NC2CCCC(C)C2C)cc1 (stereo not given)	-8.06	1.15	-3.06	-0.664	-5.84
CCOC(=O)c1ccc(N(C)c2csc(-c3ccccc3)n2)cc1	2.67	-7.65	12.4	-23.5	-2.43
COc1cc2nc(N3CCN(C(=O)C4COc5ccccc5O4)CC3)nc(N)c2cc1OC (stereo not given)	-30.6	2.73	-7.29	-17.8	-5.3
Cc1cc(Cn2cc3c4c(cccc42)[C@H](CC(C)C)N[C@H](C(=O)NC2CCCC2)C3)no1	-5.02	0.937	0.246	3.86	0.92
CCCn1c(=O)c2ccc(C(=O)NC(C)C)cc2n2c(SCC(=O)c3ccc(C)cc3C)nnc12	0.375	-1.97	-0.46	-4.57	-5.87
O=C(NCCc1ccccc1)c1ccc2c(=O)nc3c(-c4ccc(Cl)cc4)n[nH]n3c2c1	-5.06	1.96	-2.56	5.48	1.78
CCc1cccc(N2C(=O)c3cc(C(=O)OC)nn3CC2(C)C(=O)NC2CCC(C)CC2)c1 (stereo not given)	-1.58	4.71	0.587	0.502	-1.5
NC(=O)[C@@H](Cc1ccccc1)NC(=O)[C@@H]1C[C@@H](NS(=O)(=O)c2cccs2)CCN1C(=O)CSCC(=O)O	0.45	2.9	2.3	0.817	2.6
O=S(=O)(c1ccccc1)c1nnn2c1nc(NCCc1ccccc1)c1cc(Cl)ccc12	-2.14	1.81	2.47	5.78	-0.726
